One assay concerns HSkMC. Kind of assay: cytotoxicity call (relative viability < 0.9). To be noted: 10 µM.
In a further assay the test system is HepG2. Kind of assay: cytotoxicity call (relative viability < 0.9). Conditions: 10 µM.
In another assay the test system is S. aureus RN4220. Kind of assay: growth inhibition call (relative growth <= 0.2). Conditions: 50 µM.

The results in this text go back to the antibiotic and cytotoxicity screens of Wong et al. (2023).

The structures appear in SMILES notation. This is one part of the list.

`C[C@@H]1CN([C@@H](C)CO)C(=O)c2cccc(NC(=O)Nc3ccc(C(F)(F)F)cc3)c2O[C@H]1CN(C)Cc1ccncc1`: the cytotoxicity call in the assay with HSkMC and in the assay on HepG2 was “inactive” throughout. The growth inhibition call in the assay on S. aureus RN4220 was “inactive”.
In the case of `O=C(C[C@@H]1CC[C@H]2[C@@H](COC[C@H](O)CN2S(=O)(=O)c2ccc(Cl)cc2)O1)NCCN1CCCC1`, the cytotoxicity call with HSkMC and in the assay with HepG2 was “inactive” throughout. In the assay with S. aureus RN4220, the growth inhibition call is “inactive”.
As for `C[C@@H]1CCCCO[C@@H](CN(C)S(=O)(=O)c2ccc(Cl)cc2)[C@@H](C)CN([C@H](C)CO)C(=O)c2cc(NC(=O)C3CCCCC3)ccc2O1`, the cytotoxicity call in the assay with HSkMC and in the assay on HepG2 was “inactive” in each case. Further, in the assay with S. aureus RN4220, the growth inhibition call is “inactive”.
Take `COc1ccccc1C#Cc1ccc2c(c1)O[C@H](CN(C)Cc1cncnc1)[C@@H](C)CN([C@H](C)CO)S2(=O)=O`: the cytotoxicity call in the assay with HSkMC and in the assay with HepG2 was “inactive” each time. Moreover, the growth inhibition call in the assay with S. aureus RN4220 is “inactive”.
In the case of `C[C@@H]1CN([C@H](C)CO)C(=O)c2cc(C#CCN(C)C)cnc2O[C@@H]1CN(C)S(=O)(=O)c1ccccc1`, the cytotoxicity call in the assay on HSkMC and in the assay on HepG2 was “inactive” each time. Also, in the assay with S. aureus RN4220, the growth inhibition call was “inactive”.
Take `Cc1ccc(S(=O)(=O)Nc2cccc3c2O[C@@H](CN(C)S(=O)(=O)c2cn(C)cn2)[C@@H](C)CN([C@@H](C)CO)C3=O)cc1`: the cytotoxicity call with HSkMC and in the assay with HepG2 was “inactive” throughout. The growth inhibition call in the assay on S. aureus RN4220 is “inactive”.
`C[C@@H]1CCCCO[C@@H](CN(C)S(C)(=O)=O)[C@@H](C)CN([C@H](C)CO)C(=O)c2cc(NC(=O)Nc3cccc4ccccc34)ccc2O1`: the cytotoxicity call in the assay with HSkMC and in the assay on HepG2 was “inactive” in each case. In addition, in the assay on S. aureus RN4220, the growth inhibition call is “inactive”.
Consider `C[C@H]1CCCCO[C@H](CN(C)C(=O)c2ccccc2)[C@@H](C)CN([C@@H](C)CO)C(=O)c2cc(NS(=O)(=O)c3ccccc3)ccc2O1`, for which the cytotoxicity call with HSkMC and in the assay on HepG2 was “inactive” each time. The growth inhibition call with S. aureus RN4220 is “inactive”.
Regarding `CC1(C)O[C@H]2[C@H](O)C[C@](O)(C(N)=O)C[C@H]2O1`, the cytotoxicity call with HSkMC and with HepG2 was “inactive” in each case. Further, the growth inhibition call in the assay with S. aureus RN4220 was “inactive”.
In the case of `CCS(=O)(=O)Nc1ccc2c(c1)C(=O)N(C)[C@@H]1CC[C@H](CC(=O)NCCCN3CCOCC3)O[C@@H]1CO2`, the cytotoxicity call with HSkMC and in the assay on HepG2 was “inactive” in each case. For the same molecule, in the assay on S. aureus RN4220, the growth inhibition call is “inactive”.
With `COC[C@H]1CN(C(=O)c2cccc(OC)c2)N1`, the cytotoxicity call in the assay with HSkMC and in the assay with HepG2 was “inactive” throughout. The growth inhibition call in the assay on S. aureus RN4220 is “inactive”.
Take `NC(=O)NCC#Cc1ccc2c(c1)[C@]1(C(=O)N2)[C@H](C(=O)N2CCN(c3ncccn3)CC2)[C@H]2C(=O)O[C@H](c3ccccc3)[C@H](c3ccccc3)N2[C@@H]1c1ccc(OCCO)cc1`: the cytotoxicity call in the assay on HSkMC and in the assay with HepG2 was “inactive” in each case. Moreover, the growth inhibition call in the assay on S. aureus RN4220 is “inactive”.
In the case of `CCS(=O)(=O)N[C@@H]1C=C[C@H](CC(=O)NCc2ccc(Cl)cc2)O[C@H]1CO`, the cytotoxicity call with HSkMC and with HepG2 was “inactive” each time. Also, the growth inhibition call in the assay on S. aureus RN4220 is “inactive”.
Regarding `C[C@@H]1CN([C@@H](C)CO)C(=O)c2cc(NC(=O)NC3CCCCC3)ccc2O[C@H]1CN(C)C(=O)Nc1ccc(C(F)(F)F)cc1`, the cytotoxicity call in the assay with HSkMC and in the assay on HepG2 was “inactive” in each case. In addition, the growth inhibition call in the assay with S. aureus RN4220 is “inactive”.
`O=C(C[C@H]1CC[C@@H](NC(=O)C2CC2)[C@@H](CO)O1)NCCCN1CCOCC1`: the cytotoxicity call in the assay on HSkMC and in the assay on HepG2 was “inactive” throughout. In the assay on S. aureus RN4220, the growth inhibition call is “inactive”.
On to `COCC#Cc1ccc2c(c1)O[C@H](CN(C)S(=O)(=O)c1ccc(OC)cc1)[C@H](C)CN([C@@H](C)CO)S2(=O)=O`, for which the cytotoxicity call in the assay with HSkMC and with HepG2 was “inactive” each time. Also, the growth inhibition call with S. aureus RN4220 was “inactive”.
As to `CC(C)NC(=O)N(C)C[C@H]1Oc2c(NS(=O)(=O)c3cccs3)cccc2C(=O)N([C@H](C)CO)C[C@H]1C`, the cytotoxicity call with HSkMC and with HepG2 was “inactive” each time. Further, the growth inhibition call in the assay on S. aureus RN4220 was “inactive”.
On to `COCCOC(=O)C1=C(C)NC(C)=C(C(=O)OC(C)C)C1c1cccc([N+](=O)[O-])c1` (configuration not stated), for which the cytotoxicity call with HSkMC and in the assay with HepG2 was “inactive” in each case. Further, the growth inhibition call with S. aureus RN4220 is “inactive”.
As to `Clc1ccc2ncccc2c1`, the cytotoxicity call with HSkMC and with HepG2 was “inactive” throughout. In the assay on S. aureus RN4220, the growth inhibition call is “inactive”.
With `C[C@@H]1CCCCO[C@H](CN(C)C(=O)Nc2ccc(C(F)(F)F)cc2)[C@@H](C)CN([C@@H](C)CO)C(=O)c2cc(NS(=O)(=O)c3ccccc3)ccc2O1`, the cytotoxicity call in the assay on HSkMC and in the assay on HepG2 was “inactive” throughout. The growth inhibition call with S. aureus RN4220 was “inactive”.
As to `O=C(C[C@H]1C[C@H]2c3cc(NS(=O)(=O)c4ccc(F)cc4)ccc3O[C@H]2[C@H](CO)O1)NCc1cccnc1`, the cytotoxicity call in the assay with HSkMC and in the assay with HepG2 was “inactive” each time. In addition, in the assay on S. aureus RN4220, the growth inhibition call is “inactive”.
With `CCOC(=O)N(C)C[C@@H]1OCc2cn(nn2)CCCC(=O)N([C@@H](C)CO)C[C@H]1C`, the cytotoxicity call with HSkMC and in the assay on HepG2 was “inactive” each time. Besides, in the assay on S. aureus RN4220, the growth inhibition call is “inactive”.
Take `C[C@@H]1CN([C@@H](C)CO)C(=O)c2cc(NS(=O)(=O)c3ccccc3)ccc2O[C@@H]1CN(C)Cc1ccc(Oc2ccccc2)cc1`: the cytotoxicity call in the assay with HSkMC was “inactive”. In the assay on HepG2, the cytotoxicity call was “active”. Further, the growth inhibition call in the assay with S. aureus RN4220 was “inactive”.
For `Cc1noc(C)c1S(=O)(=O)Nc1ccc2c(c1)C(=O)N([C@@H](C)CO)C[C@@H](C)[C@H](CN(C)Cc1ccc(Oc3ccccc3)cc1)O2`, the cytotoxicity call in the assay with HSkMC and in the assay on HepG2 was “inactive” in each case. Moreover, the growth inhibition call in the assay with S. aureus RN4220 was “inactive”.
For the molecule `Cc1noc(C)c1NC(=O)Nc1ccc2c(c1)C(=O)N([C@@H](C)CO)C[C@@H](C)[C@H](CN(C)C(=O)Nc1cccc3ccccc13)OCCCC[C@@H](C)O2`, the cytotoxicity call with HSkMC was “active”. In the assay with HepG2, the cytotoxicity call was “inactive”. The growth inhibition call in the assay with S. aureus RN4220 was “inactive”.
With `Cc1onc(-c2ccccc2)c1C(=O)NC1C(=O)N2C1SC(C)(C)C2C(=O)[O-].[Na+]` (configuration not stated), the cytotoxicity call in the assay on HSkMC and in the assay on HepG2 was “inactive” in each case. The growth inhibition call in the assay with S. aureus RN4220 was “active”.
On to `Cc1ccc(S(=O)(=O)N(C)C[C@@H]2Oc3ccc(NS(=O)(=O)c4c(C)noc4C)cc3CC(=O)N([C@@H](C)CO)C[C@@H]2C)cc1`, for which the cytotoxicity call in the assay with HSkMC and in the assay on HepG2 was “inactive” throughout. Also, in the assay with S. aureus RN4220, the growth inhibition call is “inactive”.
Take `CNC(=O)c1cccc(S(N)(=O)=O)c1`: the cytotoxicity call in the assay on HSkMC and with HepG2 was “inactive” in each case. Further, the growth inhibition call in the assay with S. aureus RN4220 was “inactive”.
Regarding `C[C@H](CO)N1C[C@H](C)[C@@H](CN(C)CC2CC2)OCCCC[C@H](C)Oc2ccc(NS(C)(=O)=O)cc2C1=O`, the cytotoxicity call in the assay on HSkMC (human skeletal muscle cells) and in the assay on HepG2 was “inactive” in each case. Also, the growth inhibition call in the assay with S. aureus RN4220 was “inactive”.
